Results from a collection of fitness landscapes (doi:10.1016/j.celrep.2020.107928).
The full ranking holds about 81,000 sequences; the median of “one-hybrid fitness for binding parS DNA” is about -0.17, and the highest 2% start at about 0.51. Some of the results follow.

B1: Caulobacter ParB omega fusion; a variant is named by its letters at X, in order, B8GW30 (parent)
chain: MESVVVGEPGMSEGRRGLGRGLSALLGEVDAAPAQAPGEQLGGSREAPIEILQRNPDQPRRTFREEDLEDLSNSIREKGVLQPILVRPSPDTAGEYQIVAGERAWRAAQRAGLKTVPIMVRELDDLAVLEIGIIENVQRADLNVLEEALSYKVLMEKFERTQENIAQTIGKSXSHVANXMRLLXLPDEVQSYLVSGELTAXHARAIAAAADPVALAKQIIEGGLSVRETEALARKAPNLSAGKSKGGRPPRVKDTDTQALESDLSSVLGLDVSIDHRGSTGTLTITYATLEQLDDLCNRLTRGI

Variants of: B1
Assay: one-hybrid fitness for binding parS DNA (scaled: cognate 1, non-cognate 0); higher = stronger binding
Conditions: with parS DNA site
How it was run: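 Fitness here means the log change in variant-to-wild-type read ratio between plasmids sequenced before and after selection. That scale was set so cognate equals 1 and non-cognate equals 0. The selection was a bacterial one-hybrid screen of Caulobacter ParB libraries, four specificity codons randomised, in E. coli USO carrying a HIS3 reporter with the site 19 bp from the promoter, grown 48 hours at 37°C on M9-minus-histidine with 0.1 mM IPTG and 5 mM 3-AT.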

Variant | one-hybrid fitness for binding parS DNA
REVW | ≤ 0.2
NQWL | ≤ 0.2
PRQC | ≤ 0.2
LLWC | ≤ 0.2
SGIR | ≤ 0.2
GCTT | ≤ 0.2
RMYQ | 0.205
HRYC | 0.25
HLPN | ≤ 0.2
VQSM | ≤ 0.2
RYAH | ≤ 0.2
EINM | ≤ 0.2
QMQM | ≤ 0.2
TVSN | ≤ 0.2
KTAL | ≤ 0.2
MPQS | ≤ 0.2
DRIF | ≤ 0.2
RINQ | ≤ 0.2
KAWC | ≤ 0.2
CTKS | ≤ 0.2
QMGK | ≤ 0.2
SASW | ≤ 0.2
VAPM | ≤ 0.2
VASV | ≤ 0.2
RFHL | ≤ 0.2

Variant | one-hybrid fitness for binding parS DNA
LTIP | ≤ 0.2
WQMC | ≤ 0.2
GGVF | ≤ 0.2
PAMN | ≤ 0.2
CFAW | ≤ 0.2
RHMW | ≤ 0.2
TQDK | ≤ 0.2
WFSV | ≤ 0.2
RIMD | 0.234
HNFA | ≤ 0.2
RRKA | 0.532
EGRC | ≤ 0.2
FHMR | ≤ 0.2
TGCY | ≤ 0.2
SRVT | ≤ 0.2
HRMW | ≤ 0.2
NQCI | ≤ 0.2
TSQV | ≤ 0.2
HCWG | ≤ 0.2
RALW | 0.261
RYSP | ≤ 0.2
GLTW | ≤ 0.2
CPPH | ≤ 0.2
RQCQ | ≤ 0.2
LRIV | ≤ 0.2

Variant | one-hybrid fitness for binding parS DNA
FKNT | ≤ 0.2
LINL | ≤ 0.2
RQCK | ≤ 0.2
SYSS | ≤ 0.2
CLPT | ≤ 0.2
MNNR | ≤ 0.2
SSPC | ≤ 0.2
FLPA | ≤ 0.2
TYIR | ≤ 0.2
TLDD | ≤ 0.2
AGSG | ≤ 0.2
TLLK | ≤ 0.2
SPFT | ≤ 0.2
YQNT | ≤ 0.2
FEKY | ≤ 0.2
LNSD | ≤ 0.2
IHPV | ≤ 0.2
EKFS | ≤ 0.2
VNHM | ≤ 0.2
YYNG | ≤ 0.2
RPNS | ≤ 0.2
SAFV | ≤ 0.2
FISG | ≤ 0.2
ILPW | ≤ 0.2
LEPK | ≤ 0.2

Variant | one-hybrid fitness for binding parS DNA
PVAA | ≤ 0.2
DLKK | ≤ 0.2
PHFE | ≤ 0.2
VLML | ≤ 0.2
VPPG | ≤ 0.2
GWHR | ≤ 0.2
EQVF | ≤ 0.2
CRAK | ≤ 0.2
NGQP | ≤ 0.2
CSIK | ≤ 0.2
RYLK | ≤ 0.2
STIG | ≤ 0.2
YFKY | ≤ 0.2
ARSY | ≤ 0.2
PSIE | ≤ 0.2
YHSS | ≤ 0.2
IAVR | ≤ 0.2
GAVV | ≤ 0.2
DSPA | ≤ 0.2
FAKM | ≤ 0.2
QIRP | ≤ 0.2
KTMH | ≤ 0.2
VEKS | ≤ 0.2
QEAC | ≤ 0.2
MKYL | ≤ 0.2

Variant | one-hybrid fitness for binding parS DNA
QEQD | ≤ 0.2
WARQ | ≤ 0.2
HDHG | ≤ 0.2
QQGV | ≤ 0.2
GRCV | ≤ 0.2
VPPI | ≤ 0.2
VLAV | ≤ 0.2
QYHK | ≤ 0.2
PWTV | ≤ 0.2
DSGR | ≤ 0.2
KHRC | ≤ 0.2
SRTE | ≤ 0.2
ECNL | ≤ 0.2
DMEP | ≤ 0.2
PWYR | ≤ 0.2
IHHT | ≤ 0.2
KELC | ≤ 0.2
TPEF | ≤ 0.2
RWMD | ≤ 0.2
GPKR | ≤ 0.2
RIDN | 0.388
SFCM | ≤ 0.2
IGLS | ≤ 0.2
QKIN | ≤ 0.2
FIAS | ≤ 0.2

Variant | one-hybrid fitness for binding parS DNA
DSDR | ≤ 0.2
DYYL | ≤ 0.2
QMYY | ≤ 0.2
TLMM | ≤ 0.2
TWSY | ≤ 0.2
TCQR | ≤ 0.2
NQCR | ≤ 0.2
CDET | ≤ 0.2
ASPQ | ≤ 0.2
NVSV | ≤ 0.2
NQWS | ≤ 0.2
QCHT | ≤ 0.2
PMYE | ≤ 0.2
LDQG | ≤ 0.2
VKEL | ≤ 0.2
QERT | ≤ 0.2
QCLR | ≤ 0.2
LFEC | ≤ 0.2
PGLR | ≤ 0.2
YHYM | ≤ 0.2
AESR | ≤ 0.2
RTSE | ≤ 0.2
MSKE | ≤ 0.2
PSSV | ≤ 0.2
RLGQ | ≤ 0.2

Variant | one-hybrid fitness for binding parS DNA
TRAQ | ≤ 0.2
PQEN | ≤ 0.2
DAHC | ≤ 0.2
NMRM | ≤ 0.2
CDRN | ≤ 0.2
LSRA | ≤ 0.2
ENSA | ≤ 0.2
SHCE | ≤ 0.2
DGAG | ≤ 0.2
RELY | ≤ 0.2
RHLW | 0.201
DNTC | ≤ 0.2
IACR | ≤ 0.2
SPRK | ≤ 0.2
HPPY | ≤ 0.2
IPSH | ≤ 0.2
YSDG | ≤ 0.2
TMHE | ≤ 0.2
STVQ | ≤ 0.2
QKHW | ≤ 0.2
QDRS | ≤ 0.2
GQVC | ≤ 0.2
CSNC | ≤ 0.2
PWVP | ≤ 0.2
DMDR | ≤ 0.2

Variant | one-hybrid fitness for binding parS DNA
IYDC | ≤ 0.2
PALM | ≤ 0.2
GNQD | ≤ 0.2
CWCR | ≤ 0.2
RHRQ | ≤ 0.2
IYWR | ≤ 0.2
RYYI | ≤ 0.2
MLRS | ≤ 0.2
NGRK | 0.211
AIPN | ≤ 0.2
YSMA | ≤ 0.2
DVTG | ≤ 0.2
YGTY | ≤ 0.2
QTTM | ≤ 0.2
GCSR | ≤ 0.2
TYEG | ≤ 0.2
MDST | ≤ 0.2
CPRN | ≤ 0.2
PSDT | ≤ 0.2
GSWT | ≤ 0.2
